Scores whose standard error is large were omitted. The source holds two more conditions with little spread; they are left out. In variant names, del marks residues removed and ins residues inserted between the two positions. For some assays here: The data file names ogerin without a concentration.
B1: GPR68, Q15743 (parent)
chain: MGNITADNSSMSCTIDHTIHQTLAPVVYVTVLVVGFPANCLSLYFGYLQIKARNELGVYLCNLTVADLFYICSLPFWLQYVLQHDNWSHGDLSCQVCGILLYENIYISVGFLCCISVDRYLAVAHPFRFHQFRTLKAAVGVSVVIWAKELLTSIYFLMHEEVIEDENQHRVCFEHYPIQAWQRAINYYRFLVGFLFPICLLLASYQGILRAVRRSHGTQKSRKDQIQRLVLSTVVIFLACFLPYHVLLLVRSVWEASCDFAKGVFNAYHFSLLLTSFNCVADPVLYCFVSETTHRDLARLRGACLAFLTCSRTGRAREAYPLGAPEASGKSGAQGEEPELLTKLHPAFQTPNSPGSGGFPTGRLA

How the values were obtained:
[1] = variants of: B1; test: cAMP reporter score (Enrich2 score, wild type = 0); higher = more signal; HEK293T, FACS bins
[2] = variants of: B1; test: surface expression score (Enrich2 score, wild type = 0); higher = more signal; HEK293T, FACS bins

| Variant | cAMP reporter score ([1]; pH 5.5) | cAMP reporter score ([1]; pH 6, modulator: ogerin) | cAMP reporter score ([1]; pH 6.5, modulator: ogerin) | surface expression score [2] | cAMP reporter score ([1]; pH 6) |
| --- | --- | --- | --- | --- | --- |
| D259M | -0.918 | -0.642 | -2.13 | -0.058 |  |
| D259N | -0.877 | -0.499 | 0.043 | -0.848 | -0.531 |
| D259P | 0.779 | 0.933 | -0.043 | 0.773 | -0.38 |
| D259Q | 0.311 | 0.814 | -0.485 | -0.504 | -0.411 |
| D259R | 0.667 | 1.15 | -0.019 | -0.439 | 0.163 |
| D259S | -0.201 | 0.563 |  | 0.174 |  |
| D259T | 1.63 | 1.82 | 0.994 | 0.081 | 0.351 |
| D259V | -0.824 | -0.749 | -1.49 | -1.3 | -0.658 |
| D259W | -0.628 | -0.9 | -1.19 | -0.665 | -0.075 |
| D259Y | 0.167 | 0.284 | -0.663 | -1.13 | -1.51 |
| D259_F260insGSG | -1.19 | -1.14 | -0.895 | 1.32 | -0.377 |
| F260_A261insGSG | -1.09 | -1.19 | -1.47 | -1.43 | -1.64 |
| F260_K262del | -1.86 | -1.86 | -1.01 | -0.704 | -1.66 |
| K262_G263insG | -1.14 | -1.52 | -1.95 | -0.868 | -0.156 |
| K262_G263insGS | -1.01 | -0.66 | -1 | -1.53 | 0.149 |
| K262_G263insGSG | -0.914 | -1.19 | -1.21 | -1.47 | -0.841 |
| V264A | 0.322 | -0.297 | -2.06 | 0.051 | -0.853 |
| V264C | -0.366 | -0.262 | 0.329 | -0.782 | -0.327 |
| V264D | -1.38 | -1.61 | -1.18 | -2.5 | -0.972 |
| V264E | -1.48 | -0.728 | -1.2 | -1.23 | -1.86 |

| Variant | cAMP reporter score ([1]; pH 5.5) | cAMP reporter score ([1]; pH 6, modulator: ogerin) | cAMP reporter score ([1]; pH 6.5, modulator: ogerin) | surface expression score [2] | cAMP reporter score ([1]; pH 6) |
| --- | --- | --- | --- | --- | --- |
| V264F | -0.215 | -1.03 | -0.906 | 0.17 | -0.738 |
| V264G | -0.748 | -0.832 | -1.66 | -1.71 | -1.07 |
| V264H | -0.936 | -0.583 | -1.51 | -1.89 | -1.57 |
| V264I | 0.851 | 1.07 | 0.96 | 1.4 | 0.819 |
| V264K | -0.407 | -1.63 | -1.1 | -1.9 | -1.5 |
| V264L | 0.121 | -0.038 | -0.912 | 0.498 | -0.511 |
| V264M | 1.68 | 2.1 | 3.25 | 1.61 | 3.85 |
| V264P | -1.47 | -1.8 | -1.41 | -2.06 | -0.88 |
| V264Q | -0.627 | -0.022 | -0.797 | -1.66 | 0.115 |
| V264R | -1.39 | -2.32 | -1.61 | -2.95 | -1.56 |
| V264S | 0.048 | 0.393 | -0.113 | -0.2 | -1.04 |
| V264T | 0.655 | 0.231 | -0.492 | 0.501 | -0.437 |
| V264W | -0.009 | -0.321 | -0.943 | -0.042 | -0.59 |
| V264Y | 0.456 | 0.218 | -0.266 | -0.008 | 0.446 |
| F265_N266insG | 0.877 | 0.28 | -0.425 | 0.585 | -0.196 |
| N266A | -0.311 | -1.08 | -1.6 | 0.437 | -1.13 |
| N266C | -0.801 | -1.23 | -0.996 | -1.37 |  |
| N266D | 0.564 | 0.011 | -0.757 | 0.271 | -1.21 |
| N266F | -0.384 | -1.03 | -0.598 | -0.503 | -0.807 |
| N266G | -0.602 | -0.355 | -1.52 | 1.22 | -0.003 |

| Variant | cAMP reporter score ([1]; pH 5.5) | cAMP reporter score ([1]; pH 6, modulator: ogerin) | cAMP reporter score ([1]; pH 6.5, modulator: ogerin) | surface expression score [2] | cAMP reporter score ([1]; pH 6) |
| --- | --- | --- | --- | --- | --- |
| N266H | -1.31 | -1.06 | -1.44 | -0.041 | -0.997 |
| N266I | -0.455 | -0.758 | -1.46 | 0.503 | 0.033 |
| N266K | -1.01 | -1.01 | -1.29 | -0.308 | -0.676 |
| N266L | -0.364 | -0.56 | -0.683 | -0.283 | 0.126 |
| N266M | -0.847 | -1.01 | -0.865 | -0.099 | -0.909 |
| N266P | -0.125 | -1.22 | -1.1 | 1.47 | -0.124 |
| N266Q | 0.215 | -0.19 | -0.348 | 1.24 | 0.537 |
| N266R | -0.566 | -1.45 | -2.73 | 0.122 | -0.601 |
| N266S | -0.544 | -1.15 | -0.37 | -0.024 | -0.026 |
| N266T | -0.557 | -0.25 | -0.042 | 0.292 | -1.22 |
| N266V | -0.525 | -0.931 | -0.538 | -0.147 | -1.12 |
| N266W | -1.16 | -1.34 | 0.613 | -0.257 | -2.17 |
| N266Y | -0.994 | -1.15 | -1.29 | 0.153 | -1.19 |
| N266_Y268del | -1.77 | -1.05 | -1.58 | -1.44 | -1.02 |
| A267C | -0.914 | -0.849 | -0.434 | -1.85 | -1.21 |
| A267D | -1.51 | -1.48 | -1.64 | -2.29 | -0.853 |
| A267E | -0.013 | -0.793 | -1.9 | -2.25 | -1.25 |
| A267F | 0.204 | 0.433 | 0.832 | -0.388 | 0.84 |
| A267G | 0.73 | 0.342 | -0.069 | -0.374 | -0.609 |
| A267H | -0.029 | -1.08 | -0.987 | -1.58 | -0.33 |
